This is an account of results in ChEMBL document CHEMBL4888484, “Replenishing the malaria drug discovery pipeline: Screening and hit evaluation of the MMV Hit Generation Library 1 (HGL1) against asexual blood stage Plasmodium falciparum ,using a nano luciferase reporter read-out” (2022).

Molecules are shown by their SMILES. In all, about 150,000 compounds went through this assay and about 540 (0.36%) showed an effect of 50% or more. The list shows a part of the results.

One may read the % Inhibition as the change of the read-out against control, counted positive when it falls.

This assay concerns Plasmodium falciparum. The experiment in a line: Primary screen in NF54 nanoGlo assay, in single point, at 2uM, 72h; a lower Z score goes with more inhibition. In kind it is functional, Erythrocyte. To be noted: timepoint 72 hour.
For `Cc1nnc(CNC(=O)c2c(C)c3cccc(C)c3n2C)o1`, the “% Inhibition” value was 2% and the Z score is listed as -0.25.
As for `Cc1csc(=O)n1CCc1nc(C2CCCCCC2)no1`, the “% Inhibition” value is given as -9% and the Z score is reported as 1.27.
Consider `Cc1oc(-c2ccccc2F)nc1CN(Cc1ccccc1)C[C@@H]1CCC(=O)N1`, for which the “% Inhibition” value stood at 6% and the Z score is listed as -0.89.
For `Cc1n[nH]c(C)c1S(=O)(=O)Nc1ccccc1Cc1ccccc1`, the “% Inhibition” value was 2% and the Z score was -0.28.
Consider `COc1ccc([C@@]2(c3nc(C)n[nH]3)CC2(C)C)cc1`, for which the “% Inhibition” value is -11% and the Z score stood at 1.93.
In the case of `CC(C1CC1)n1cc(NC(=O)N[C@H]2CCOc3c(F)cccc32)cn1` (stereo partly specified), the “% Inhibition” value is recorded as -2% and the Z score was found to be 0.2.
The matching figures for `CC[C@H](C)N(Cc1ccncc1)C(=O)c1nc(C(C)C)cs1`: 4% and -0.86.
Consider `Cc1ncsc1CN[C@@H](C)c1cccc(-n2cnnc2)c1`, for which the “% Inhibition” value is -5% and the Z score was 0.59.
For `CC(C)Cc1cc(CNc2nccc(N3CCC[C@H](O)C3)n2)on1` the same measures were -5% and 0.68.
The matching figures for `CN(C)S(=O)(=O)c1ccc(C(=O)N2CC[C@H](c3ccc4c(c3)CCO4)C2)cc1`: -10% and 1.12.
With `O=C(O)c1cncc(C(=O)N(CCc2cccc(F)c2)C2CC2)c1`, the “% Inhibition” value stood at 35% and the Z score is -3.94.
On to `COCCC1(C(=O)n2nc(C3CCC3)nc2N)CCCC1`, for which the “% Inhibition” value is -13% and the Z score was 1.29.
In the case of `COCCO[C@H]1CN(C2CCN(C(=O)c3ccc4ccccc4n3)CC2)C12CCCCC2`, the “% Inhibition” value turned out to be 14% and the Z score was -2.24.
For the compound `COc1ccc(CCN2C(=O)N(c3cccc(C(F)(F)F)c3)[C@H](N(O)C(=O)Nc3cccc(C(F)(F)F)c3)C2(C)C)cc1`, the “% Inhibition” value is -2% and the Z score was 0.26.
The matching figures for `NC(=NCCCOCCOCc1ccccc1)NC1CCCC1`: -2% and 0.21.
The matching figures for `CC[C@@H](C(=O)O)N(CC)Cc1ccc(Cl)s1`: -11% and 1.53.
Turning to `O=C(NCCc1cnc(C2CC2)nc1)[C@H]1CCCOC1`, the “% Inhibition” value is listed as 23% and the Z score is -2.95.
For the compound `CCc1nnc(COc2cc(C)nc3ccccc23)o1`, the “% Inhibition” value turned out to be 27% and the Z score is recorded as -3.02.
Take `O=C(Nc1ccc(Cl)cc1)N1Cc2nc[nH]c2C[C@H]1c1nc(-c2ccc3ccccc3c2)no1`: the “% Inhibition” value is reported as 19% and the Z score is -2.22.
The matching figures for `CC(C)CS(=O)(=O)CCC(=O)N1CCCC[C@H]1c1ccco1`: -6% and 0.9.
With `N=C(Cc1ccccc1)NOC(=O)c1cccc2ccccc12`, the “% Inhibition” value came to 40% and the Z score is -5.13.
In the case of `COc1ccc2c(n1)N(C(=O)c1cc(C(F)F)ncn1)CC2`, the “% Inhibition” value is -6% and the Z score is given as 0.97.
For `CC(NC1C2CCOC2C12CCC2)c1cnccn1` (stereo unspecified) the same measures were -2% and 0.25.
For `Cc1cccnc1[C@H](C)NC(=O)CCc1scnc1C` the same measures were -10% and 1.11.
For `CCn1ccc(C(=O)Nc2cnn3c2NCCC3)cc1=O` the same measures were -3% and 0.48.
For `CCN(CC)c1nc(C)nc2sc(C(=O)N3CCN(c4ccc(OC)cc4)CC3)c(C)c12`, the “% Inhibition” value is listed as -7% and the Z score is listed as 1.1.
The matching figures for `CC1CC1C(=O)Nc1nnc(C2CC2)s1` (stereo unspecified): 17% and -1.93.
For the compound `NC(=O)c1ccccc1NC(=O)C1CCN(c2cc(N3CCCC3)ncn2)CC1`, the “% Inhibition” value is listed as 7% and the Z score is on record as -1.36.
As to `CN(Cc1ccc2c(c1)OCO2)C(=O)c1cnn[nH]1`, the “% Inhibition” value was -15% and the Z score is listed as 1.51.
For `N#Cc1ccc(Oc2ccc(NC(=O)NCc3cccnc3)cc2)cc1` the same measures were -5% and 0.95.
Regarding `CC[C@H](C)[C@H](NC(=O)[C@H](C)N1Cc2ccccc2C1=O)c1nc2ccccc2[nH]1`, the “% Inhibition” value was determined as 2% and the Z score was -0.23.
Take `COc1cccc(CC(=O)N2CCc3nc(N4CCCC4)nc(N4CCC(C)CC4)c3C2)c1`: the “% Inhibition” value is -1% and the Z score came out at 0.13.
As for `CCc1nc(CN(Cc2ccco2)C(=O)NC(C)C)[nH]c(=O)c1Cc1ccc(OC)cc1`, the “% Inhibition” value is listed as -3% and the Z score was 0.48.
In the case of `C[C@H](NC(=O)Nc1nccs1)c1ccc(-n2cccn2)cc1`, the “% Inhibition” value worked out at 3% and the Z score is on record as -0.48.
On to `N#CCN(C(=O)Cc1ccc(F)cc1)C1CC1`, for which the “% Inhibition” value is reported as -8% and the Z score was determined as 1.1.
The matching figures for `CC(=O)N1CCN(C(=O)c2cc(S(=O)(=O)N(C)c3ccc(F)cc3)ccc2Cl)CC1`: -11% and 1.46.
The matching figures for `CN(C(=O)c1ccc(F)c(Br)c1)c1ccnn1C`: -5% and 0.79.
`O=C(NCCc1cscn1)N1CC(F)C1`: the “% Inhibition” value is reported as 6% and the Z score is -0.76.
`O=C(Nc1ccc2c(c1)OCCO2)c1ncn(C[C@H](O)c2ccc(F)cc2)n1`: the “% Inhibition” value was -18% and the Z score stood at 2.09.
`O=C(C[C@@H]1C=CCC1)NS(=O)(=O)c1cccc2c1N=S=N2`: the “% Inhibition” value stood at 4% and the Z score is given as -0.58.
The matching figures for `COCCN(Cc1ccncc1)C(=O)c1cc(-c2cc(OC)ccc2OC)nn1C`: -6% and 0.65.
For `COCCC(=O)N1CCc2nc(N3CCN(C)CC3)sc2C1` the same measures were -8% and 1.13.
With `CCc1nc(C)c(C(=O)N2CCCC[C@@H]2CCc2cccs2)o1`, the “% Inhibition” value is -8% and the Z score amounted to 1.05.
